# Experimental data as given in PubChem BioAssay (NCATS).
# Several values for one entry are separate records, joined by “and”; a condition that tells them apart may be missing. Identical values can stand only once. This is one part of the list. These are further read-outs of the screen, such as a control signal, another cell line or another target. No call is given for them. Most of these compounds were active or inconclusive in the main read-out, so they are no random draw. For part of these data: Potencies come from curve fits of mixed quality, noted in brackets.
# What was measured:
# [1] = qHTS Assay for Lipid Storage Modulators (AID 1519); settings: Drosophila S3 cells, BODIPY lipid droplet/cell ratio, laser cytometry, cells loaded with oleic acid
# How it was run: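 Cells seeded at 5,000 per well were treated with compounds over a concentration series and loaded with oleic acid (400 uM, as added). Lipid droplet fluorescence (488 nm excitation, 500-530 nm channel) was read by laser-scanning cytometry and normalized to 20 uM Triacsin C.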
# [2] = NCATS anti-infectives library activity on the primary C. elegans qHTS viability assay (AID 1745855); settings: C. elegans worm area imaging
# How it was run: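 GFP read-out by 488 nm laser cytometry at day 0, 3 and 7, gated on object perimeter, area and peak intensity, scored viability of PE254-GFP-FLuc worms exposed to compound in S medium with bacterial capsules at 21 °C.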
# [3] = qHTS Assay for Modulators of Human Peripheral Myelin Protein 22 (PMP22) Expression/Activity (AID 1967); settings: Cell-based PMP22 reporter, dual-color luciferase ratio
# How it was run: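 Engineered MSC80 cells, Pmp22-promoter green and EF-alpha red luciferase reporters; 24h compound treatment at 37 °C. Concentration-response fits on green, red and ratio signals, each overlap-corrected, with %Activity normalized to untreated wells.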
# [4] = qHTS assay for small molecule antagonists of peroxisome proliferator-activated receptor gamma signaling (AID 588537); settings: HEK293 PPARg-UAS-bla, beta-lactamase ratio, antagonist mode; measured here: W460 blue channel
# How it was run: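 Compounds are tested as concentration series for inhibition of rosiglitazone-driven (50 nM) reporter expression in GeneBLAzer PPAR-gamma-UAS-bla HEK293 cells. After 16 h at 37 C, CCF4 substrate is added for 2 h at room temperature and blue/green fluorescence is measured.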
# [5] = target: Histamine N-methyltransferase (Homo sapiens) (UniProt P50135); experiment: Confirmatory Screen for Target Class Profiling of Small Molecule Inhibitors of Methyltransferases (AID 1745852); settings: MTase-Glo luminescence, SAH detection, recombinant enzyme; measured here: HNMT inhibition potency;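 also: inhibitor potency for blocking SAH production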
# [6] = qHTS for identification of novel therapeutic agents for treatment of microphthalmiaassociated transcription factor (MiT) renal cell carcinoma (RCC) (AID 1963991); settings: CellTiter-Glo, 48 h, stronger effect = lower value;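 also: curves scaled with 100% = DMSO viability and 0% = empty wells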
# How it was run: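 UOK109/UOK124/UOK145 (TFE3 fusions, three partners); 500 cells/well; MIPE v4.0, 1912 cpds, 11 conc.; 48 h, 37 C; CellTiter-Glo, 15 min RT; lum. Norm.: DMSO 100%, empty 0%.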
# [7] = qHTS Validation Assay to Find Inhibitors of Chronic Active B-Cell Receptor Signaling (AID 485345); settings: ABC-DLBCL cells, chronic BCR signaling reporter; measured here: CBR control luciferase (viability counter)
# How it was run: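 TMD8 ABC-DLBCL cells with dox-inducible green luciferase–IκBα fusion and red native luciferase; compounds 46 uM–3 nM, 4 h at 37C with doxycycline in 0.5% FBS IMDM. Green/red ratio normalized to basal and 10 uM MG-132.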
# [8] = measured here: cell count channel max response
# [9] = measured here: cell number channel AC50
# [10] = measured here: lipid (BODIPY) channel AC50
# [11] = measured here: lipid channel max response
# [12] = measured here: red reporter channel AC50, EF-alpha promoter control reporter in MSC80 mouse Schwann cells
# [13] = measured here: green reporter channel AC50, mouse Pmp22 promoter in mouse Schwann cells
# Tags tell the direction and shape of the fitted curve.
# Chain of UniProt P50135 (P50135 whole entry, looked up): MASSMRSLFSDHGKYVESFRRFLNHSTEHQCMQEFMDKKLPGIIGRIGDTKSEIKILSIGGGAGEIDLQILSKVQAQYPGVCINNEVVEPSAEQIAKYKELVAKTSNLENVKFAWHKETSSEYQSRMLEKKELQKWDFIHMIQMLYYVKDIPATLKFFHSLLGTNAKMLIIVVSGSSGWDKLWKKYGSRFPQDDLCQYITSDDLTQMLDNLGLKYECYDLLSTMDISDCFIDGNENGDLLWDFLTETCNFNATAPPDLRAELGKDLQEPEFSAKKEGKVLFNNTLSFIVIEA
compound,measurement,setting,value
COc1ccc2c(c1)[nH]c1c(C)nccc12,max response,[1]; [8],42.8%
same,AC50,[1]; [9],"0.282 µM [rising, full curve, poor fit]"
same,AC50,[1]; [10],"0.316 µM [rising, full curve, poor fit]"
same,max response,[1]; [11],40%
same,AC50,"[2]; day 7, measured here: worm number","25.8 µM [falling, single point]"
same,AC50,"[2]; day 7, measured here: worm area, day 3","25.8 µM [falling, single point]"
same,AC50,"[2]; day 7, measured here: worm number, day 3","25.8 µM [falling, partial curve, poor fit]"
N[C@H](CCCCCP(=O)(O)O)C(=O)O,max response,[1]; [8],-28.3% and 23.1%
same,AC50,[1]; [9],"8.91 µM [falling, partial curve, poor fit] and 25.1 nM [falling, full curve, poor fit]"
same,AC50,[1]; [10],"708 nM [falling, full curve, poor fit] and 22.4 nM [falling, full curve, poor fit]"
same,max response,[1]; [11],-31.8% and 23.2%
same,AC50,[3]; [12],"84.9 µM [falling, single point]"
NCCc1ccc(O)cc1,max response,[1]; [8],16.5% and -21.7%
same,AC50,[1]; [9],"14.1 µM [falling, partial curve, poor fit]"
same,AC50,[1]; [10],"39.8 µM [rising, single point] and 14.1 µM [falling, partial curve, poor fit]"
same,max response,[1]; [11],31.6% and -22.8%
same,AC50,[4],"50.1 µM [rising, single point]"
same,IC50,[5],"0.485 µM [falling, full curve]"
COc1ccc2[nH]cc(CCN)c2c1,max response,[1]; [8],21.7% and -29.7%
same,AC50,[1]; [9],"0.1 µM [falling, full curve, poor fit]"
same,AC50,[1]; [10],"2 µM [rising, partial curve]"
same,max response,[1]; [11],31.5% and -30.2%
same,AC50,[3]; [13],"42.6 µM [falling, full curve]"
same,AC50,[3]; [12],"42.6 µM [falling, full curve]"
CC[N+](CC)(CC)CC,max response,[1]; [8],41.7%
same,AC50,[1]; [9],"11.2 µM [falling, partial curve, poor fit]"
same,AC50,[1]; [10],"12.6 µM [falling, partial curve, poor fit]"
same,max response,[1]; [11],41.7%
same,AC50,[3]; [12],"95.3 µM [falling, single point]"
COC1(CS(=O)c2ccccc2)CCN(CCc2c[nH]c3ccc(F)cc23)CC1 (stereo not given),max response,[1]; [8],57.3%
same,AC50,[1]; [9],"11.2 µM [rising, partial curve, poor fit]"
same,AC50,[1]; [10],"14.1 µM [rising, partial curve, poor fit]"
same,max response,[1]; [11],70.7%
same,z-score,"[6]; TFE3-RCC UOK109 viability, measured here: UOK109 Z-AUC",0.205
same,z-score,"[6]; TFE3-RCC viability, measured here: UOK124 Z-AUC",0.361
same,z-score,"[6]; TFE3-RCC viability, measured here: UOK145 Z-AUC",0.0417
Ic1ccccc1CNC1C2CCN(CC2)C1C(c1ccccc1)c1ccccc1 (stereo not given),max response,[1]; [8],44.9%
same,AC50,[1]; [9],"0.141 µM [rising, full curve, poor fit]"
same,AC50,[1]; [10],"0.141 µM [rising, full curve, poor fit]"
same,max response,[1]; [11],44.8%
same,AC50,[3]; [13],"33.8 µM [falling, full curve]"
same,AC50,[3]; [12],"23.9 µM [falling, full curve]"
same,AC50,[7],"13 µM [falling, partial curve]"
CC1=NN=C(c2ccc(N)cc2)c2cc3c(cc2C1)OCO3,max response,[1]; [8],119% and 59.1%
same,AC50,[1]; [9],"2.24 µM [rising, full curve]"
same,AC50,[1]; [10],"2.51 µM [rising, full curve]"
same,max response,[1]; [11],181% and 62.5%
same,AC50,[3]; [13],"84.9 µM [falling, single point]"
NC(=NCCC[C@H](N)C(=O)O)N[N+](=O)[O-],max response,[1]; [8],-6.75%
same,AC50,[1]; [9],"3.16 µM [falling, full curve, poor fit]"
same,AC50,[1]; [10],"3.16 µM [falling, full curve, poor fit]"
same,max response,[1]; [11],-12.4%
same,AC50,[3]; [12],"84.9 µM [falling, single point]"
N#CC(=Cc1ccc(O)c(O)c1)C(N)=S,max response,[1]; [8],-42.1%
same,AC50,[1]; [9],"7.94 µM [falling, full curve, poor fit]"
same,AC50,[1]; [10],"7.94 µM [falling, full curve, poor fit]"
same,max response,[1]; [11],-43.4%
same,AC50,[3]; [12],"67.5 µM [falling, partial curve]"
O=S1(=O)N(CCN2CC=C(c3c[nH]c4cc(F)ccc34)CC2)c2cccc3c2N1CCC3,max response,[1]; [8],-78.6%
same,AC50,[1]; [9],"25.1 µM [falling, partial curve, poor fit]"
same,AC50,[1]; [10],"25.1 µM [falling, partial curve, poor fit]"
same,max response,[1]; [11],-79.6%
same,AC50,[3]; [13],"60.1 µM [falling, partial curve]"
same,AC50,[3]; [12],"84.9 µM [falling, partial curve, poor fit]"
OC1(c2ccc(Cl)cc2)CCN(Cc2c[nH]c3ccccc23)CC1,max response,[1]; [8],42.5%
same,AC50,[1]; [9],"35.5 µM [rising, single point]"
same,AC50,[1]; [10],"35.5 µM [rising, single point]"
same,max response,[1]; [11],49.3%
same,AC50,[3]; [13],"37.9 µM [falling, partial curve]"
same,AC50,[3]; [12],"42.6 µM [falling, full curve]"
N[C@@H](CCl)C(=O)O,max response,[1]; [8],-45.5%
same,AC50,[1]; [9],"20 µM [falling, partial curve, poor fit]"
same,AC50,[1]; [10],"20 µM [falling, partial curve, poor fit]"
same,max response,[1]; [11],-43.7%
same,AC50,[3]; [12],"84.9 µM [falling, single point]"
